Measurements from PMC7099082.
These are yes or no findings as the source states them, for the method shown. Binding seen in cells or lysates may run through a third protein. Some entries that bind do so weakly or less than the wild type. Where a sequence is shown, tags or fusion partners need not be part of it.

Amino acid sequences for entries named in this document (tags omitted).
UniProt Q9SN12: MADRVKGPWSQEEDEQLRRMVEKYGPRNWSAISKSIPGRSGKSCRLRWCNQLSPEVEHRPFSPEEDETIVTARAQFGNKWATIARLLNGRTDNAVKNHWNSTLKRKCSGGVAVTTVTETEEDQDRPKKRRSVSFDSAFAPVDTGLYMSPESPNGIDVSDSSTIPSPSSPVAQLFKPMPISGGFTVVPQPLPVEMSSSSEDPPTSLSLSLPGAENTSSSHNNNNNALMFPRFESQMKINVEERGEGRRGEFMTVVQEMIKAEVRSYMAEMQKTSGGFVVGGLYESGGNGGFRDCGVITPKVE

T1: SnRK1α1 fused to the N-terminal or C-terminal half of YFP (BiFC) (Arabidopsis thaliana) (UniProt Q38997)
T1 sequence: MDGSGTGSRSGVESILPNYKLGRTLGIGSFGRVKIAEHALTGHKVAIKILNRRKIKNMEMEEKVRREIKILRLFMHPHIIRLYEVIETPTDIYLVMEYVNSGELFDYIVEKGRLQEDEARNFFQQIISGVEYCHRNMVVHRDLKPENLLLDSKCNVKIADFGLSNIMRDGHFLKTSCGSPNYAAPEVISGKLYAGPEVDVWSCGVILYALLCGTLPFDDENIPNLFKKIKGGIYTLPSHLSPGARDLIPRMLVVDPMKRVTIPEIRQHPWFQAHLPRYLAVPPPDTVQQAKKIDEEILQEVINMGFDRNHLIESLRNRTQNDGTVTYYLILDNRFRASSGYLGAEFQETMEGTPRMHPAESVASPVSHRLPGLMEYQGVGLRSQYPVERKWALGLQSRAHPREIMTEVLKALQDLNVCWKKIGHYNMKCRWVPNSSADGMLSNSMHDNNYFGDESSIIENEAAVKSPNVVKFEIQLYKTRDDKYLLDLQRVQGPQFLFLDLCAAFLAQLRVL

T2: SnRK1α2 fused to the N-terminal or C-terminal half of YFP (BiFC) (Arabidopsis thaliana) (UniProt P92958)
T2 sequence: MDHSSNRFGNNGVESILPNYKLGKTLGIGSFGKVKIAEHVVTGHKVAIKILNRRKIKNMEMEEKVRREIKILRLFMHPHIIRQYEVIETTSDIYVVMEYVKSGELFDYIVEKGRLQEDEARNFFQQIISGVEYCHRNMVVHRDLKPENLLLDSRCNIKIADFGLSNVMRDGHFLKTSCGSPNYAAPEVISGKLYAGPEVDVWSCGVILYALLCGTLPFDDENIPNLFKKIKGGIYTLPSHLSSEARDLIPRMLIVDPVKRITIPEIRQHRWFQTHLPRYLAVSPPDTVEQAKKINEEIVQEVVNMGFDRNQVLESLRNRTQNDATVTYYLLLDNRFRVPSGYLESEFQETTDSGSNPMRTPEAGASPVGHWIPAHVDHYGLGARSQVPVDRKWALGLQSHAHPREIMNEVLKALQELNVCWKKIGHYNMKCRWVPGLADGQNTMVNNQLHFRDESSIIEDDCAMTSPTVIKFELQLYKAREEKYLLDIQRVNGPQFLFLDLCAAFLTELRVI


Key:
[1] = target: T1, SnRK1α1 fused to the N-terminal or C-terminal half of YFP (BiFC) (Arabidopsis thaliana); assay: split reporter; BiFC with split YFP in Nicotiana benthamiana leaves infiltrated with Agrobacterium GV2260; fluorescence seen after 72 h by confocal microscopy; both halves of YFP on each partner
[2] = target: T2, SnRK1α2 fused to the N-terminal or C-terminal half of YFP (BiFC) (Arabidopsis thaliana); assay: as above

Row | Molecule | binding [1] | binding [2]
1 | MYB77 fused to the N-terminal or C-terminal half of YFP (BiFC) (from UniProt Q9SN12 1-301) | binds | no binding
2 | SnRK3.22 fused to the N-terminal or C-terminal half of YFP (BiFC) (protein, UniProt O22932 1-435) MPEIEIAAGSGDNNDALFGKYELGKLLGCGAFAKVFHARDRRTGQSVAVKILNKKKLLTNPALANNIKREISIMRRLSHPNIVKLHEVMATKSKIFFAMEFVKGGELFNKISKHGRLSEDLSRRYFQQLISAVGYCHARGVYHRDLKPENLLIDENGNLKVSDFGLSALTDQIRPDGLLHTLCGTPAYVAPEILSKKGYEGAKVDVWSCGIVLFVLVAGYLPFNDPNVMNMYKKIYKGEYRFPRWMSPDLKRFVSRLLDINPETRITIDEILKDPWFVRGGFKQIKFHDDEIEDQKVESSLEAVKSLNAFDLISYSSGLDLSGLFAGCSNSSGESERFLSEKSPEMLAEEVEGFAREENLRMKKKKEEEYGFEMEGQNGKFGIGICISRLNDLLVVVEARRRGGDGDCYKEMWNGKLRVQLIRVCDQTSSTNAAI | binds | binds
3 | AFP2 fused to the N-terminal or C-terminal half of YFP (BiFC) (protein, UniProt Q9LMX5 1-348) MGEASRQQRAWNREMTVTTNLSLDIDKYPRDLLRGFMSENGGGRVFHGGETNCDDESTIELNLGLSLGGRFGVDKTPRKLKRSSSVLDTVPFNDSTVAEPENYTVGLERTTSLPAEMEEEWRKRKEMQSLRRMEAKRRRCEKQSFRVGNSDDQTVSFENERWVTASKSGFLQRHLVSSNRQVCGVDSDGGGATGGGSSSSLSELDNKNQQGSSNSCNDERSPKIVAGCSSNSGSQGTERPSVTRANKVNENENEKRVRSEDSVDRKGKGMATSTGLVDMPCVFTKGDGPNGRRVDGILYKYGKGEEVRIMCICHGSFLTPAEFVKHGGGGDVDRPLRHIVVNTSSSTF | binds | binds
4 | ANAC055 fused to the N-terminal or C-terminal half of YFP (BiFC) (protein, UniProt Q9LDY8 1-317) MGLQELDPLAQLSLPPGFRFYPTDEELMVEYLCRKAAGHDFSLQLIAEIDLYKFDPWVLPSKALFGEKEWYFFSPRDRKYPNGSRPNRVAGSGYWKATGTDKVISTEGRRVGIKKALVFYIGKAPKGTKTNWIMHEYRLIEPSRRNGSTKLDDWVLCRIYKKQTSAQKQAYNNLMTSGREYSNNGSSTSSSSHQYDDVLESLHEIDNRSLGFAAGSSNALPHSHRPVLTNHKTGFQGLAREPSFDWANLIGQNSVPELGLSHNVPSIRYGDGGTQQQTEGIPRFNNNSDVSANQGFSVDPVNGFGYSGQQSSGFGFI | no binding | no binding
